The record followed here is the supplement of paper PMC11283458.

Each structure is given as a SMILES string. Where a name gives a salt, the structure may show the parent alone. Some of the results follow. Single values are uncertain, as repeats are few or missing.

In test [1] the test system is Mef2d microexon dual Nano/Firefly luciferase splicing reporter in Neuro-2a cells. Briefly: B-score of Firefly/Nano luminescence ratio, V1 Mef2d microexon reporter (B-score (plate-normalised)); higher = more Mef2d microexon inclusion. The settings on record: 24 h.
The test system is the same in test [2]. Briefly: B-score of Nano/Firefly luminescence ratio, V2 Mef2d microexon reporter (B-score (plate-normalised)); higher = more Mef2d microexon inclusion. The following applies: 24 h.
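Throughout, for B-score of Nano/Firefly luminescence ratio, V2 Mef2d microexon reporter: compounds at 4 µM (PKI library 0.5 µM) on Dox-inducible N2A Flp-In cells with PEST-tagged luciferases, 384-well plates, B-score from per-plate median-polish residual over median absolute residual.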

`CC(C)n1nc(-c2cc3cc(O)ccc3[nH]2)c2c(N)ncnc21` [Pp242, Torkinib, PP-242] (0.5 µM): the B-score is -8.36 in test [1] and -6.02 in test [2].
On the same counts, the results for `COc1cc2c(cc1OC)CN(C(=O)c1ccc(OCC(F)(F)F)nc1)CC2` (4 µM) are -20.6 and -4.63.
For `CN1CC[C@@H](c2c(O)cc(O)c3c(=O)cc(-c4ccccc4Cl)oc23)[C@@H]1CO` [(+)-P276, P276-00, Riviciclib hydrochloride] (0.5 µM), in that order: 6.91 and 6.43.
On the same counts, the results for `CCOC(=O)c1sc(N)c(C#N)c1COC(=O)c1c(CC)noc1C` (4 µM) are -10.3 and -5.16.
Consider `O=[N+]([O-])c1ccc(SC2=NCCS2)c([N+](=O)[O-])c1` (4 µM), for which the B-score in test [1] was -0.164; in test [2], -6.35.
On the same counts, the results for `N[C@@H](CSC(c1ccccc1)(c1ccccc1)c1ccccc1)C(=O)O` [S-Trityl-L-cysteine] (4 µM) are -5.15 and -8.9.
With `CC(C)(C)c1ccc2cc(C#N)c(C#N)cc2c1` (4 µM), the values for the B-score in test [1] and in test [2] were -2.07 and -8.59, respectively.
Take `Cc1cccc(Cc2cnc(NC(=O)c3ccc(Br)cc3)s2)c1` (4 µM): the figures for the B-score in test [1] and in test [2] were -7.01 and -10.7, respectively.
On the same counts, the results for `CCCOc1ccccc1-c1nc2[nH]nnc2c(=O)[nH]1` [Zaprinast] (4 µM) are 2.77 and 6.39.
`O=C1C2C(c3ccccc3)N3CN(C2c2ccccc2)C(c2ccccc2)C1C3c1ccccc1` (configuration not stated) (4 µM): the figures for the B-score in test [1] and in test [2] were 2.7 and 8.24, respectively.
As to `Cc1ccc(Cc2cnc(NC(=O)c3cnn(C)c3)s2)cc1` (4 µM), the B-score in test [1] was -7.74; in test [2], -11.4.
For `CC(=O)c1sc(-c2ccccc2)cc1NS(=O)(=O)c1ccc(C)c(Cl)c1` (4 µM), in that order: 2.83 and 36.3.
As for `Cn1ncc(C(=O)Nc2ccc(Cl)c(Cl)c2)c1[N+](=O)[O-]` (4 µM), the B-score came to 10.4 in test [1] and 0.809 in test [2].
Take `COc1ccc(OC)c(NCc2c(OC)ccc3ccccc23)c1` (4 µM): the B-score in test [1] is -10.5; in test [2], -11.1.
On the same counts, the results for `Clc1ccc2nc(-c3ccc4c(c3)OCCO4)cn2c1` (4 µM) are -2.13 and -8.16.
Take `COc1ccc(OC)c(C(C)=O)c1OCc1ccccc1` (4 µM): the B-score in test [1] stood at 3.72; in test [2] it was 2.86.
On the same counts, the results for `CN(C)S(=O)(=O)c1ccc2c(c1)C(=C(C#N)C#N)c1cc(S(=O)(=O)N(C)C)ccc1-2` (4 µM) are -5.73 and -2.18.
On the same counts, the results for `CC(C)(C)c1ccc2[nH]c3c(c2c1)CCCC3=O` (4 µM) are -4.69 and -10.4.
On the same counts, the results for `Cc1cc(Nc2cc(CN3CCOCC3)c3nc(C)c(Cc4ccc(Cl)cc4F)n3n2)n[nH]1` (0.5 µM) are 9.06 and 9.85.
For the compound `O=C(CC1Sc2ccccc2NC1=O)Nc1ccc(C(F)(F)F)cc1` (configuration not stated) (4 µM), the B-score in test [1] came out at 2.02; in test [2], 5.05.
On the same counts, the results for `O=C(NC[C@H](O)CO)c1ccncc1Nc1ccc(I)cc1F` (0.5 µM) are 5.67 and 5.05.
As to `N#Cc1c(NC(=O)c2cccc3ccccc23)sc2c1CCCC2` (0.5 µM), the B-score in test [1] is -6.13; in test [2] it was -7.27.
On the same counts, the results for `COc1cccc2c1C(=O)c1c(O)c3c(c(O)c1C2=O)C[C@@](O)(C(C)=O)C[C@@H]3O[C@H]1C[C@H](N)[C@H](O)[C@H](C)O1` [Daunorubicin hydrochloride] (4 µM) are -18.8 and -23.8.
As for `N#CC(=NNc1cc(C(F)(F)F)ccc1OCC(F)(F)F)S(=O)(=O)c1ccccc1` (4 µM), the B-score in test [1] came to 21; in test [2] it was 3.32.
For `COc1ccc(C=C2CCCc3ccccc3C2=O)cc1` (4 µM), in that order: -2.16 and -5.9.
For the compound `CSc1sc(C(=O)Nc2cccc(C(F)(F)F)c2)c2c1S(=O)(=O)N(C)c1ccccc1-2` (4 µM), the B-score in test [1] came to 3.67; in test [2], 3.88.
On the same counts, the results for `Cc1onc(-c2ccccc2)c1C(=O)ON=C(N)c1ccc([N+](=O)[O-])o1` (4 µM) are 3.37 and 4.61.
For `O=[N+]([O-])c1ccc(CS(=O)(=O)c2ccc(Cl)cc2)cc1` (4 µM), the B-score was -0.179 in test [1] and 19.7 in test [2].
Regarding `O=C(Oc1cccc2cccnc12)c1cccc(F)c1` (4 µM), the B-score in test [1] came out at 10.9; in test [2], 4.41.
For `COC(=O)C1C(C(=O)OC)C2(OC(c3ccccc3)=CC2=O)C12OC(c1ccccc1)=CC2=O` (configuration not stated) (4 µM), in that order: 5.48 and 5.99.
Regarding `NC(CSc1ncccc1C(F)(F)F)=NOC(=O)c1ccc(Cl)cc1` (4 µM), the B-score in test [1] worked out at 3.18; in test [2], 1.3.
Regarding `COc1ccc(C=C(C#N)c2ccc([N+](=O)[O-])cc2)cc1[N+](=O)[O-]` (4 µM), the figures for the B-score in test [1] and in test [2] were 6.58 and 11.5, respectively.
For `C=CCN(c1ccccc1C1=N/C(=C\c2cccc(C)c2)C(=O)O1)S(=O)(=O)c1ccc(C)cc1` (4 µM), in that order: -1.54 and -5.
As for `CC(C=Cc1ccccc1)=NOC(=O)c1c(-c2c(Cl)cccc2Cl)noc1C` (4 µM), the results for the B-score in test [1] and in test [2] were 2.56 and 6.46, respectively.
For `Cc1cc(C)c(N(Cc2ccccc2)S(=O)(=O)c2ccc(OCCNC(=O)c3cc4ccccc4o3)cc2)c(C(=O)NO)c1` (4 µM), in that order: 3.81 and 9.02.
Consider `CCC(=O)Oc1c(Cc2ccccc2)c(=O)oc2ccccc12` (4 µM), for which the figures for the B-score in test [1] and in test [2] were -5.01 and -4.25, respectively.
